Source: the supplement of paper PMC10681739
Over roughly 4,000 sequences, “arbitrary fluorescence units” has its median near 830; the highest 2% begin near 6,500. Most of the strongest results are missing from this list.

What follows are sequences tested against RUNX1 (UniProt Q01196) (assay: RUNX1 binding intensity (PBM fluorescence), RUNX1 alone (arbitrary fluorescence units); higher = stronger binding). Conditions: RUNX1 concentration 2 nM; ETS1 concentration 0 nM.
Method: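 gcPBM on 36-bp genomic-derived probes (partner site mutated) containing one RUNX1 site and no ETS1 site. Recombinant human RUNX1 (2 nM) was incubated alone or with ETS1 (25 nM) and detected by anti-RUNX1 antibody fluorescence. Values are medians over 4 replicate spots (not normalised). The probes sit in constant array flanks that are not printed.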
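Further: Full-length recombinant human RUNX1 bound to double-stranded DNA microarray spots, detected with an Alexa488-labelled secondary antibody after the anti-RUNX1 primary, read as scanned spot fluorescence.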

UniProt Q01196, sequence (Q01196 whole entry): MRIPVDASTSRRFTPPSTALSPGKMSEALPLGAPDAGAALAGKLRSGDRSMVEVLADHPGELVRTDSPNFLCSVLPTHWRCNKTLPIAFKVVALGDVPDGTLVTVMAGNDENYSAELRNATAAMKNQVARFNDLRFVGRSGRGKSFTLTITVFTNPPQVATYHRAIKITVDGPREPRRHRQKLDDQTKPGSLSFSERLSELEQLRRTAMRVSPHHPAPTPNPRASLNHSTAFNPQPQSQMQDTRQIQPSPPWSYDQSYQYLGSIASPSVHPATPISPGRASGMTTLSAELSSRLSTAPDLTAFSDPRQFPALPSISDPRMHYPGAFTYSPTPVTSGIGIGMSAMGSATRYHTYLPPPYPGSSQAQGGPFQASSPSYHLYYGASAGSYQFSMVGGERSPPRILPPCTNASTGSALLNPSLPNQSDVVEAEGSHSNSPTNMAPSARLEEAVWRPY

Sequence	RUNX1 binding intensity
TGACGGCCAGCAAGCCTGAAGCCGCAGGGGCCGCCG	705
CTAGTCTGATTCCTCATCTGCGGCCTGCACGCCCGC	977
CTCTTTCACAAAGCAAATGGAAACCACAAAGAGGAC	1570
TGGGCTTCTCTGTGGGTGTGGCGGGAACTAGATGAA	708
CAACACAGCATGTGCAGTATTATACCGCAAAGCACT	885
CTCCTGGGCTCGTGGTCAAAACATGCTGTAGCAAGG	753
GAGAGGTGGTTGCTGGGAGAGCTGTTCAGGCGCTCA	765
CCGACCGCACCAGCTCCCGCGCGTGGTTCAGCCGCT	1080
CCTCACCCAGCAAGTGGCTGCGGCTGTCTCAGGGTT	890
CCAGCATGTAGTTTGGCCACTATTGAGTGGTTTGTT	822
AACCTGCAGACTTGCTGCCATGTGACCACAGGGTCT	822
ACAGCGGTCATCAAAACACCAGGTCCCTCCTCGGCC	812
AGTATACTGTGGTGAGAAACTGCCTGCCATACCAGC	824
GGATTGTGGGGTAGCGAACCCCGGGGCCGTAAGCAG	771
TGGCGGCGGAGACTGCCCATGGCGCGAGGCCGCAAG	708
AGCCTACACCCTGCACTGCTTAACCACAGCCCGCCT	2130
AGGCTGTGGGTGCCCTCGCCTTGCCCTCAGGCAGGG	704
CCCGGCTGAACTCGCTGTCCCGGCAGGCACCGCGGC	1040

Sequence	RUNX1 binding intensity
CGTAGACACCTTCAGCTGCACCCAGCCGCAGCTGGT	803
GACAAACATACCGCTAGGACAGCATGTGAAATCCAC	786
TCACTAATTGTGTGGGGCCCCAGGGTGTGTTTTGGT	756
CTGCTGCGGCAGAACGCGACGTGCTAACCTGAATCC	771
TAATGCGGTTGCTCACTTAACAGACTACAGCATGGT	1260
GTGCAACTGCGGTAAAAATAGGCAGTGGGGGAGGAG	1050
AGGTCTTTTGCATCATGCAGAACACCACATGTGTCC	810
TACAGGCACTTGCTGCGCGGCTGCTGTGGTTGCGAG	653
TGGTACCACAAAGCGGCGGCAGGAGGGACGTTTCTG	864
CGAGCAGGCAGTGGCAAGATTTGATAGGCGGTCAGG	712
ACAGAGAGGGACGTCGCCAGTGTGGTCAGCGGGCGT	879
AAGGCGGTACTGCCTCCAGCATTTGCCGCAAGTTAT	646
CAGATTTACGGCTTCTGAGGAGCTGCCCTACCACAG	734
AAGCCGGTGGTTTCTGGAGGTTCAGCACATGCTGGA	789
AATGAGCCCCACAACCCTTTTCCTTACGGCCTGCAC	1150
AACAACAGCATGCTCTCTAGTCTAACAGTGGTAACA	904
CGTGGCGGTATCCCGGAGCCTGCCGTCCAGCCCTAC	790
